# Whole data set: some 2,900 compounds, median “NF-kB SEAP reporter activity, fold change vs agonist alone” near 0.99, cut for the highest 2% near 2.6. The list shows a part of the results.
# Assays:
# [1] = test system: RAW-Dual; assay: NF-kB SEAP reporter activity, fold change vs agonist alone; higher = enhanced NF-kB activity; conditions: library stock concentration (final ~1000-fold dilution): 10 mM
# Summary of the method: (§1)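 After 50 nL of library stock was delivered by pin tool to RAW-Dual macrophages (50,000 cells/well, DMEM, 384-well plates), a PRR agonist was added 1 h later and the plates were kept at 37 °C, 5% CO2. Twenty hours later, IRF was read from supernatant by QuantiLuc luminescence and NF-κB by QuantiBlue absorbance at 620 nm. Reporter activity is stated as fold change over agonist-alone wells. Wells with IncuCyte confluency under 70% of agonist controls in both mask sets were counted as cytotoxic.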
# [2] = test system: RAW-Dual; assay: NF-kB SEAP reporter activity, fold change vs agonist alone; cytotoxicity flag (confluency mask): not cytotoxic; higher = enhanced NF-kB activity
# Summary of the method: as §1
# [3] = test system: RAW-Dual; assay: NF-kB SEAP reporter activity, fold change vs agonist alone; cytotoxicity flag (confluency mask): cytotoxic (confluency <70% of control); higher = enhanced NF-kB activity
# Summary of the method: as §1
# [4] = cytotoxicity flag (confluency mask): not cytotoxic, agonist: MPLA (TLR4) […]
# [5] = agonist: ODN 1826 (TLR9) 0.5 ug/mL
# [6] = agonist: Pam2CSK4 (TLR2/6) 0.1 ug/mL
# [7] = agonist: Pam3CSK4 (TLR2/1) 0.1 ug/mL
# [8] = cytotoxicity flag (confluency mask): not cytotoxic, agonist: Imiquimod (TLR7) […]
# [9] = cytotoxicity flag (confluency mask): cytotoxic (confluency <70% of control), agonist: Imiquimod (TLR7) […]
# [10] = cytotoxicity flag (confluency mask): cytotoxic (confluency <70% of control), agonist: MPLA (TLR4) […]
compound,measurement,setting,value
NC(=O)c1ccccn1,NF-kB SEAP reporter activity,[1]; [4],1.08
NC(=O)c1ccccn1 (library stock concentration (final ~1000-fold dilution): 10 mM),NF-kB SEAP reporter activity,[2]; agonist: LPS (TLR4) 0.1 ug/mL,1.07
same,NF-kB SEAP reporter activity,[2]; [5],0.942
same,NF-kB SEAP reporter activity,[2]; [6],1.06
same,NF-kB SEAP reporter activity,[2]; [7],0.836
Cl.N=C1CCCN1Cc1[nH]c(=O)[nH]c(=O)c1Cl (library stock concentration (final ~1000-fold dilution): 10 mM),NF-kB SEAP reporter activity,[2]; agonist: LPS (TLR4) 0.1 ug/mL,1.08
same,NF-kB SEAP reporter activity,[2]; [5],1.03
same,NF-kB SEAP reporter activity,[2]; [6],1.1
same,NF-kB SEAP reporter activity,[2]; [7],1.07
Cl.N=C1CCCN1Cc1[nH]c(=O)[nH]c(=O)c1Cl,NF-kB SEAP reporter activity,[1]; [8],1.01
same,NF-kB SEAP reporter activity,[1]; [4],1.1
COc1ccccc1N1CCN(CCN(C(=O)C2CCCCC2)c2ccccn2)CC1.O=C(O)/C=C\C(=O)O (library stock concentration (final ~1000-fold dilution): 10 mM),NF-kB SEAP reporter activity,[2]; agonist: LPS (TLR4) 0.1 ug/mL,1.03
same,NF-kB SEAP reporter activity,[2]; [5],0.975
same,NF-kB SEAP reporter activity,[2]; [6],1.05
same,NF-kB SEAP reporter activity,[2]; [7],1.18
COc1ccccc1N1CCN(CCN(C(=O)C2CCCCC2)c2ccccn2)CC1.O=C(O)/C=C\C(=O)O,NF-kB SEAP reporter activity,[1]; [8],1.03
same,NF-kB SEAP reporter activity,[1]; [4],1.05
O=C(CCCCCCNC(=O)c1cnc(N(c2ccccc2)c2ccccc2Cl)nc1)NO (library stock concentration (final ~1000-fold dilution): 10 mM),NF-kB SEAP reporter activity,[3]; agonist: LPS (TLR4) 0.1 ug/mL,4.23
COc1cc(O)c2c(=O)cc(-c3ccc(O)c(O)c3)oc2c1,NF-kB SEAP reporter activity,[1]; [8],0.999
same,NF-kB SEAP reporter activity,[1]; [4],1.34
COc1cc(O)c2c(=O)cc(-c3ccc(O)c(O)c3)oc2c1 (library stock concentration (final ~1000-fold dilution): 10 mM),NF-kB SEAP reporter activity,[2]; agonist: LPS (TLR4) 0.1 ug/mL,1.06
same,NF-kB SEAP reporter activity,[2]; [5],0.594
same,NF-kB SEAP reporter activity,[2]; [6],0.635
same,NF-kB SEAP reporter activity,[2]; [7],0.656
Br.Cc1ccc(C(=O)Cn2c3c(sc2=N)CCCC3)cc1 (library stock concentration (final ~1000-fold dilution): 10 mM),NF-kB SEAP reporter activity,[2]; agonist: LPS (TLR4) 0.1 ug/mL,1.32
same,NF-kB SEAP reporter activity,[2]; [5],0.81
same,NF-kB SEAP reporter activity,[2]; [6],0.953
same,NF-kB SEAP reporter activity,[2]; [7],1.08
Br.Cc1ccc(C(=O)Cn2c3c(sc2=N)CCCC3)cc1,NF-kB SEAP reporter activity,[1]; [8],0.951
same,NF-kB SEAP reporter activity,[1]; [4],1.1
COc1cc2c3cc1Oc1c(OC)c(OC)cc4c1C(Cc1ccc(O)c(c1)Oc1ccc(cc1)CC3N(C)CC2)N(C)CC4 (stereo not drawn),NF-kB SEAP reporter activity,[1]; [8],0.193
same,NF-kB SEAP reporter activity,[1]; [4],1.54
COc1cc2c3cc1Oc1c(OC)c(OC)cc4c1C(Cc1ccc(O)c(c1)Oc1ccc(cc1)CC3N(C)CC2)N(C)CC4 (stereo not drawn) (library stock concentration (final ~1000-fold dilution): 10 mM),NF-kB SEAP reporter activity,[2]; agonist: LPS (TLR4) 0.1 ug/mL,0.829
same,NF-kB SEAP reporter activity,[2]; [5],0.17
same,NF-kB SEAP reporter activity,[2]; [6],0.707
same,NF-kB SEAP reporter activity,[2]; [7],1.01
C=CC(=O)Nc1ccc2ncnc(Nc3cccc(Br)c3)c2c1,NF-kB SEAP reporter activity,[1]; [8],1.14
same,NF-kB SEAP reporter activity,[1]; [4],0.269
C=CC(=O)Nc1ccc2ncnc(Nc3cccc(Br)c3)c2c1 (library stock concentration (final ~1000-fold dilution): 10 mM),NF-kB SEAP reporter activity,[2]; agonist: LPS (TLR4) 0.1 ug/mL,0.22
same,NF-kB SEAP reporter activity,[2]; [5],0.413
same,NF-kB SEAP reporter activity,[2]; [6],0.756
same,NF-kB SEAP reporter activity,[2]; [7],0.41
CCC(=O)c1c(O)cc(O)cc1O (library stock concentration (final ~1000-fold dilution): 10 mM),NF-kB SEAP reporter activity,[2]; agonist: LPS (TLR4) 0.1 ug/mL,1.34
same,NF-kB SEAP reporter activity,[2]; [5],1.04
same,NF-kB SEAP reporter activity,[2]; [6],1.3
same,NF-kB SEAP reporter activity,[2]; [7],0.994
CCC(=O)c1c(O)cc(O)cc1O,NF-kB SEAP reporter activity,[1]; [8],0.854
same,NF-kB SEAP reporter activity,[1]; [4],1.02
CCc1c(C)[nH]c2c1C(=O)C(CN1CCOCC1)CC2.Cl (stereo not drawn) (library stock concentration (final ~1000-fold dilution): 10 mM),NF-kB SEAP reporter activity,[2]; agonist: LPS (TLR4) 0.1 ug/mL,0.951
same,NF-kB SEAP reporter activity,[2]; [5],1.17
same,NF-kB SEAP reporter activity,[2]; [6],0.961
same,NF-kB SEAP reporter activity,[2]; [7],1.01
CCc1c(C)[nH]c2c1C(=O)C(CN1CCOCC1)CC2.Cl (stereo not drawn),NF-kB SEAP reporter activity,[1]; [4],1.03
COc1c(O)c(C)cc2c1C(=O)c1c(O)cccc1C2=O (library stock concentration (final ~1000-fold dilution): 10 mM),NF-kB SEAP reporter activity,[2]; agonist: LPS (TLR4) 0.1 ug/mL,1.19
same,NF-kB SEAP reporter activity,[2]; [5],1.02
same,NF-kB SEAP reporter activity,[2]; [6],1.04
same,NF-kB SEAP reporter activity,[2]; [7],1.01
COc1c(O)c(C)cc2c1C(=O)c1c(O)cccc1C2=O,NF-kB SEAP reporter activity,[1]; [8],0.981
same,NF-kB SEAP reporter activity,[1]; [4],1.08
CN1CCN(CCOc2cc(OC3CCOCC3)c3c(Nc4c(Cl)ccc5c4OCO5)ncnc3c2)CC1 (library stock concentration (final ~1000-fold dilution): 10 mM),NF-kB SEAP reporter activity,[3]; agonist: LPS (TLR4) 0.1 ug/mL,0.942
same,NF-kB SEAP reporter activity,[3]; [5],0.219
same,NF-kB SEAP reporter activity,[3]; [6],0.616
same,NF-kB SEAP reporter activity,[3]; [7],0.829
CN1CCN(CCOc2cc(OC3CCOCC3)c3c(Nc4c(Cl)ccc5c4OCO5)ncnc3c2)CC1,NF-kB SEAP reporter activity,[1]; [9],2.07
same,NF-kB SEAP reporter activity,[1]; [10],1.88
O=C(NCC1CN(c2ccc(N3CCOCC3=O)cc2)C(=O)O1)c1ccc(Cl)s1 (stereo not drawn),NF-kB SEAP reporter activity,[1]; [8],1.04
same,NF-kB SEAP reporter activity,[1]; [4],1.01
O=C(NCC1CN(c2ccc(N3CCOCC3=O)cc2)C(=O)O1)c1ccc(Cl)s1 (stereo not drawn) (library stock concentration (final ~1000-fold dilution): 10 mM),NF-kB SEAP reporter activity,[2]; agonist: LPS (TLR4) 0.1 ug/mL,1.04
same,NF-kB SEAP reporter activity,[2]; [5],1.07
same,NF-kB SEAP reporter activity,[2]; [6],1.04
same,NF-kB SEAP reporter activity,[2]; [7],1.25
Nc1ccc(S(=O)(=O)Nc2ccnn2-c2ccccc2)cc1 (library stock concentration (final ~1000-fold dilution): 10 mM),NF-kB SEAP reporter activity,[2]; agonist: LPS (TLR4) 0.1 ug/mL,1.01
same,NF-kB SEAP reporter activity,[2]; [5],0.97
same,NF-kB SEAP reporter activity,[2]; [6],1.06
same,NF-kB SEAP reporter activity,[2]; [7],1
Nc1ccc(S(=O)(=O)Nc2ccnn2-c2ccccc2)cc1,NF-kB SEAP reporter activity,[1]; [8],1.05
same,NF-kB SEAP reporter activity,[1]; [4],1.04
Cc1ccc(NC(=O)c2ccc(CN3CCC(N(C)C)C3)c(C(F)(F)F)c2)cc1Nc1nccc(-c2cncnc2)n1 (stereo not drawn),NF-kB SEAP reporter activity,[1]; [9],2.42
same,NF-kB SEAP reporter activity,[1]; [10],1.36
Cc1ccc(NC(=O)c2ccc(CN3CCC(N(C)C)C3)c(C(F)(F)F)c2)cc1Nc1nccc(-c2cncnc2)n1 (stereo not drawn) (library stock concentration (final ~1000-fold dilution): 10 mM),NF-kB SEAP reporter activity,[3]; agonist: LPS (TLR4) 0.1 ug/mL,0.247
same,NF-kB SEAP reporter activity,[3]; [5],0.833
same,NF-kB SEAP reporter activity,[3]; [6],1.4
same,NF-kB SEAP reporter activity,[3]; [7],1.16
